{"source": "PubChem BioAssay AID588855", "about": "(National Center for Advancing Translational Sciences (NCATS), 2011)", "note": "The campaign covered roughly 410,000 compounds. About 5,000 (1.2%) were called active. Inconclusive means that the source gave no clear call. Such entries were picked first, then a sample of the others. Calls follow the shape of the dose curve; as a rule, active = well fitted inhibition curve with a large enough effect; inconclusive = small, poorly fitted or top-dose-only effect; inactive = no such curve, though single readings can be large or run the other way. Potencies of inconclusive entries are doubtful fits and often do not repeat. % is scaled to controls: 0 for no effect and ±100 for the full control effect; potency is read from the fitted curve at half-maximal effect; tags tell the direction and shape of the fitted curve.", "data": [{"test": "qHTS for Inhibitors of TGF-b; also: nearly all actives have a fitted effect of over 65% in size", "conditions": "HepG2 CAGA-GFP TGF-b/SMAD3 reporter, GFP fluorescence, 18 h, TGF-beta stimulated, 500 pg/mL final; series mostly up to 46.1 µM; activity, negative = inhibition: at the top concentration", "in_short": "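TGF-beta reporter screen: HEPG2 CAGA-GFP, 1% FBS, 500 pg/mL TGF-beta final, 18 h; per-cell GFP summed per well; curves fitted and categorized by class.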", "values": [{"smiles": "Cc1[nH]c2ccccc2c1SCCNC(=O)c1ccccc1F", "Potency": "inconclusive: 25.1 µM [inhibitor, single point]"}, {"smiles": "CCN(c1ccccc1)S(=O)(=O)c1ccc(N)c(OC)c1", "activity, negative = inhibition": "inactive: 1.67%"}, {"smiles": "COc1ccc(NS(=O)(=O)c2ccc3c(c2)NC(=O)CCS3)cc1Cl", "Potency": "inconclusive: 17.8 µM [inhibitor, single point]"}, {"smiles": "CCOc1c(Br)cc(CNC2CCCCCCC2)cc1OC", "Potency": "inconclusive: 35.5 µM [inhibitor, single point]"}, {"smiles": "CSCCC(C(=O)Nc1c(C)cccc1C)N(Cc1ccccc1)Cc1ccccc1", "note": "(stereo unspecified)", "Potency": "inconclusive: 15.8 µM [inhibitor, single point]"}, {"smiles": "Cc1ccccc1NC(=S)NC(=O)/C=C/c1ccco1", "activity, negative = inhibition": "inactive: 14.6%"}, {"smiles": "O=c1[nH]c2ccc(NS(=O)(=O)c3ccc(Cl)cc3)cc2[nH]1", "activity, negative = inhibition": "inactive: 0.109%"}, {"smiles": "O=C(CN1CCN(c2ccccn2)CC1)Nc1ccccc1", "activity, negative = inhibition": "inactive: 7.18%"}, {"smiles": "CCOc1ccc(CCNC(=O)c2cc3sc(CC)cc3n2C)cc1OCC", "Potency": "inconclusive: 10 µM [inhibitor, partial curve, poor fit]"}, {"smiles": "Cc1ccc(S(=O)(=O)N2CCC(n3c(C)nc4cccnc43)CC2)c(C)c1", "Potency": "inconclusive: 7.08 µM [inhibitor, full curve, poor fit]"}, {"smiles": "O/N=C(\\c1ccc(Cl)cc1)c1ncc(C(F)(F)F)cc1Cl", "Potency": "inconclusive: 35.5 µM [inhibitor, single point]"}, {"smiles": "COc1cccc(S(=O)(=O)Nc2ccc3c(c2)[C@@H]2C[C@@H](CC(=O)NCc4ccc(Cl)cc4)O[C@@H](CO)[C@@H]2O3)c1", "Potency": "inconclusive: 22.4 µM [inhibitor, single point]"}, {"smiles": "CCOC(=O)c1c(C)oc2c1c(C(c1cccnc1)N1CCCCC1)c(O)c1ccccc12", "note": "(stereo unspecified)", "Potency": "inconclusive: 5.62 µM [inhibitor, single point]"}, {"smiles": "CCOC(=O)c1ccccc1NC(=O)COC(=O)CCC1CCCC1", "activity, negative = inhibition": "inactive: -45%"}, {"smiles": "O=C(COc1ccccc1Cl)NCCNC(=O)c1cccnc1", "activity, negative = inhibition": "inactive: 1.25%"}, {"smiles": "CC(NC(=O)c1ccco1)C(c1cccs1)N1CCN(c2ccccc2F)CC1", "note": "(stereo unspecified)", "Potency": "inconclusive: 11.2 µM [inhibitor, single point]"}, {"smiles": "O=C1N[C@H](Cc2ccccc2)COC(=O)[C@H](Cc2ccc(F)cc2)C/C=C\\C[C@@H]1CC(=O)N(CCO)Cc1ccccc1", "Potency": "inconclusive: 25.1 µM [inhibitor, partial curve, poor fit]"}, {"smiles": "CC(C)N(C(=O)Cn1c(Cl)nc2ccccc21)C(C)C", "activity, negative = inhibition": "inactive: -3.55%"}, {"smiles": "COC(=O)c1cc(S(=O)(=O)N2CCC(c3ccccc3)C2)c[nH]1", "note": "(stereo unspecified)", "activity, negative = inhibition": "inactive: 18.5%"}, {"smiles": "COc1ccccc1NC(=O)c1cc(S(=O)(=O)NCCC2=CCCCC2)ccc1F", "Potency": "inconclusive: 1.78 µM [inhibitor, full curve]"}, {"smiles": "CCOc1ccc(NC(=O)c2c(NC(=O)c3cccs3)sc3c2CCC(C(C)(C)C)C3)cc1", "note": "(stereo unspecified)", "activity, negative = inhibition": "inactive: 14.1%"}, {"smiles": "CCOc1c(C)cnc2c1c(=O)n(Cc1c(F)cccc1Cl)c(=O)n2C", "activity, negative = inhibition": "inactive: 3.67%"}, {"smiles": "C=C1C2C[C@H](O)C(C)(C)[C@@]2(O)[C@H](O)C[C@]23C[C@@](C)(O)[C@H](CC[C@H]12)[C@H]3O", "note": "(stereo partly specified)", "Potency": "inconclusive: 14.1 µM [inhibitor, single point]"}, {"smiles": "COc1ccc(NC(=O)CCc2c(C)nc3c(-c4ccc(F)cc4)c(C)nn3c2C)c(OC)c1", "activity, negative = inhibition": "inactive: -2.66%"}, {"smiles": "CCc1ccccc1NC(=O)CN(C)C(=O)COC(=O)c1ccco1", "activity, negative = inhibition": "inactive: -0.551%"}, {"smiles": "Cc1ccc(OCC(=O)NC2CCSc3ccccc32)cc1", "note": "(stereo unspecified)", "activity, negative = inhibition": "inactive: -0.642%"}, {"smiles": "CC1(C)CNC(=O)c2sc(NC(=O)c3ccccc3)nc2C1", "Potency": "inconclusive: 20 µM [inhibitor, single point]"}, {"smiles": "Cc1ccc(-c2csc3nc(SCC(N)=O)n(Cc4ccccc4)c(=O)c23)cc1", "Potency": "inconclusive: 35.5 µM [inhibitor, single point]"}, {"smiles": "Brc1ccc2nc(SCCOc3ccccc3)[nH]c2c1", "Potency": "inconclusive: 20 µM [inhibitor, single point]"}, {"smiles": "Cc1ccc(SCCC(=O)Nc2ccccc2Br)cc1", "activity, negative = inhibition": "inactive: 0.718%"}, {"smiles": "CNc1ccc(/C=C/c2ccccc2)cc1", "activity, negative = inhibition": "inactive: -23.9%"}, {"smiles": "COc1ccccc1C(=O)NCCC(=O)Nc1ccc(S(=O)(=O)Nc2ncccn2)cc1", "activity, negative = inhibition": "inactive: 1.3%"}, {"smiles": "CCC(C)(CC(=O)O)CC(=O)Nc1cc(C(F)(F)F)cc(C(F)(F)F)c1", "note": "(stereo unspecified)", "Potency": "inconclusive: 10 µM [inhibitor, partial curve]"}, {"smiles": "O=C1c2ccccc2C(=O)N1CC(O)COc1cccc2ccccc12", "note": "(stereo unspecified)", "activity, negative = inhibition": "inactive: -15%"}, {"smiles": "COc1ccccc1C(=O)NCCC(=O)NCC(c1ccccc1)N(C)C", "note": "(stereo unspecified)", "activity, negative = inhibition": "inactive: 0.372%"}, {"smiles": "Oc1ccc2oc3c(c2c1)CCCC3", "Potency": "inconclusive: 3.16 µM [inhibitor, partial curve, poor fit]"}, {"smiles": "O=C(Nc1ccc(F)cc1)c1ccc(CSc2ccccc2)o1", "Potency": "inconclusive: 35.5 µM [inhibitor, single point]"}, {"smiles": "Cc1csc(=O)n1CCC(=O)OCC(=O)Nc1ncc(Cl)cc1Cl", "Potency": "inconclusive: 5.62 µM [inhibitor, single point]"}, {"smiles": "N#Cc1cc2cc3c(cc2nc1SCC(=O)N1CCOCC1)OCCO3", "Potency": "inconclusive: 1.26 µM [inhibitor, full curve, poor fit]"}, {"smiles": "CCOC(=O)C1(CCOc2ccccc2)CCN(Cc2cc(OC)c(O)cc2Cl)CC1", "Potency": "inconclusive: 15.8 µM [inhibitor, single point]"}, {"smiles": "CCC(C)(C)C1CCc2c(sc(NC(=O)c3ccccc3C(=O)O)c2C#N)C1", "note": "(stereo unspecified)", "Potency": "inconclusive: 17.8 µM [inhibitor, single point]"}, {"smiles": "O=C(C[C@@H]1C/C=C/CCCC(=O)O[C@H](c2ccccc2)CNC1=O)NCCO", "Potency": "inconclusive: 6.31 µM [inhibitor, full curve, poor fit]"}, {"smiles": "CCCOc1cccc(-c2nnc(NC(=O)c3ccco3)s2)c1", "Potency": "inconclusive: 10 µM [inhibitor, partial curve]"}, {"smiles": "O=C1/C(=C/c2ccco2)SC(=S)N1C1CCS(=O)(=O)C1", "note": "(stereo unspecified)", "activity, negative = inhibition": "inactive: -9.49%"}, {"smiles": "Cn1c(=O)c(C(=O)NNC(=O)c2cccc(Cl)c2)c(O)c2ccccc21", "Potency": "inconclusive: 11.2 µM [inhibitor, partial curve]"}, {"smiles": "O/N=C/c1ccc(OCc2ccccc2)c(Cl)c1", "activity, negative = inhibition": "inactive: 0%"}, {"smiles": "CS(=O)(=O)Nc1cccc(NC(=O)c2ccc(-c3ccc(F)c(F)c3)c3ccoc23)c1", "Potency": "inconclusive: 35.5 µM [inhibitor, single point]"}, {"smiles": "COc1ccc(NC(=O)NC(C)c2c(-n3cccc3)sc3c2CCN(C)C3)c(OC)c1", "note": "(stereo unspecified)", "Potency": "inconclusive: 35.5 µM [inhibitor, partial curve, poor fit]"}, {"smiles": "CN(C)C(=O)COC(=O)c1cccc(S(=O)(=O)Nc2ccc(OCc3ccccc3)cc2)c1", "activity, negative = inhibition": "inactive: -7.7%"}, {"smiles": "COc1ccc(/C=N\\NC(=O)c2ccc(F)cc2)cc1COc1ccccc1C(N)=O", "Potency": "inconclusive: 12.6 µM [inhibitor, partial curve, poor fit]"}, {"smiles": "COc1ccc(S(=O)(=O)N2CCN(CC(=O)Nc3cccc(F)c3)CC2)cc1", "Potency": "inconclusive: 35.5 µM [inhibitor, single point]"}, {"smiles": "CCOc1ccc(-c2noc(CSc3nnc(Cc4ccccc4)n3-c3cccc(C)c3)n2)cc1", "Potency": "inconclusive: 35.5 µM [inhibitor, single point]"}, {"smiles": "Cc1nc(CCNC(=O)CC2C(=O)NCCN2CC(C)(C)C)nc2c1CCC2", "note": "(stereo unspecified)", "Potency": "inconclusive: 5.62 µM [inhibitor, single point]"}, {"smiles": "COc1ccccc1NC(=O)C1CCCN1C(=O)Nc1ccc(F)cc1", "note": "(stereo unspecified)", "activity, negative = inhibition": "inactive: 2.18%"}, {"smiles": "CCCCN1C(=O)C(=O)c2cc(Cl)ccc21", "Potency": "active: 12.6 µM"}, {"smiles": "S=C(Nc1cc(Cl)cc(Cl)c1)NC1CCN(Cc2ccccc2)CC1", "Potency": "inconclusive: 20 µM [inhibitor, single point]"}, {"smiles": "COc1ccccc1OC(C)C(=O)Nc1ccc(S(=O)(=O)N2CCN(C)CC2)cc1", "note": "(stereo unspecified)", "activity, negative = inhibition": "inactive: -0.631%"}, {"smiles": "COCCCNC(=O)C1CCCN(c2nn3cc(-c4ccc(C)cc4)nc3s2)C1", "note": "(stereo unspecified)", "activity, negative = inhibition": "inactive: -1.86%"}, {"smiles": "Cc1c(O)ccc(/C(Cc2ccc3ccccc3n2)=N\\O)c1O", "Potency": "inconclusive: 12.6 µM [inhibitor, single point]"}, {"smiles": "CCOC(=O)N(C)c1c(CC)nc2c(OCCC3CCCCC3)cccn12", "Potency": "inconclusive: 17.8 µM [inhibitor, single point]"}, {"smiles": "CC1CN(c2ccc([N+](=O)[O-])c(NCCOc3ccccc3)c2)CCN1", "note": "(stereo unspecified)", "Potency": "inconclusive: 35.5 µM [inhibitor, single point]"}, {"smiles": "CC1CCN(C(=O)CCCN2C(=O)c3cccnc3Oc3ccc(Cl)cc32)CC1", "activity, negative = inhibition": "inactive: -14.4%"}, {"smiles": "Cc1ccc(CNC(=O)CCC(=O)N2CCSc3ccccc32)cc1", "Potency": "inconclusive: 35.5 µM [inhibitor, single point]"}, {"smiles": "Cc1ccc(Oc2ccc(C(=O)NCc3ccncc3)cc2)cc1", "activity, negative = inhibition": "inactive: -15.2%"}, {"smiles": "CC1=CC(=O)C(Sc2ccc(C)cc2)=CC1=O", "Potency": "inconclusive: 11.2 µM [inhibitor, partial curve, poor fit]"}, {"smiles": "Cc1ccccc1NC(=O)c1ccc(NC(=O)C2CC(=O)OC23CCCCC3)cc1", "note": "(stereo unspecified)", "Potency": "inconclusive: 0.355 µM [inhibitor, full curve, poor fit]"}, {"smiles": "O=C1C=C(c2ccc(CO)cc2)C[C@@H](c2ccc(F)cc2)C1", "Potency": "inconclusive: 0.631 µM [inhibitor, partial curve, poor fit]"}, {"smiles": "CC(=O)N(CCC(Cc1ccccc1)c1ccco1)Cc1ccco1", "note": "(stereo unspecified)", "Potency": "inconclusive: 35.5 µM [inhibitor, single point]"}, {"smiles": "Cc1cc(-c2nc3ccccc3o2)c2ccccc2n1", "activity, negative = inhibition": "inactive: 0%"}, {"smiles": "CCN(CC)S(=O)(=O)c1ccc(-c2csc(C)n2)cc1", "Potency": "inconclusive: 35.5 µM [inhibitor, single point]"}, {"smiles": "COc1cc(Cl)ccc1NC(=S)N(CCN(C)C)C(C)c1ccncc1", "note": "(stereo unspecified)", "Potency": "inconclusive: 11.2 µM [inhibitor, partial curve]"}]}]}
